This experiment concerns the target T1, Soluble human IL-6 receptor (human, UniProt P08887 20-365).
T1 construct: Interleukin-6 receptor subunit alpha, human, soluble form; also called sIL-6Rα; soluble IL-6Rα; source: bought: Sigma (catalog no. I5771); expressed in Sf21 insect cells
T1 sequence (looked up): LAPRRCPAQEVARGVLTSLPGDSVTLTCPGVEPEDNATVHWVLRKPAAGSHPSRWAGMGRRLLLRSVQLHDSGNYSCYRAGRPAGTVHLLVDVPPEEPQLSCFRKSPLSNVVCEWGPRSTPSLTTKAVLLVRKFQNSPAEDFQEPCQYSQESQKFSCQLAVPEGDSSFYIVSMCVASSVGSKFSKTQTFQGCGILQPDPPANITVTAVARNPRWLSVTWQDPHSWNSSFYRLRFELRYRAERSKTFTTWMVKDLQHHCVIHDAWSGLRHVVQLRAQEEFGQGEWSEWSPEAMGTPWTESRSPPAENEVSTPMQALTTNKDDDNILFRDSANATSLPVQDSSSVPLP
Kind of experiment: ELISA; soluble IL-6Rα coupled to a microtiter plate by passive adsorption; biotinylated IL-6 (50 ng/ml) in PBS with 1% BSA, 0.05% Tween 20, 5 mM MgCl2, 120 min at 25 °C; bound IL-6 detected with streptavidin horseradish peroxidase; with and without SOMAmer or tocilizumab as competitor. The conditions noted are these: both partners purified. (In general: An ELISA detects its analyte on a solid surface through an enzyme-linked reagent.)

B1: Recombinant human IL-6, biotinylated (ligand)
chain: not shown
modifications: biotin (NHS-PEO4-biotin) coupled to lysine residues
notes: Interleukin-6, human, […]; recombinant, nonglycosylated; numbers count on: the mature protein; also called interleukin-6; biotinylated IL-6; source: bought: PeproTech (catalog no. 200-06); expressed in Escherichia coli, nonglycosylated; biotinylated with NHS-PEO4-biotin
Take B1: the binding result is on record as “binds”.
